# Assay results as given in the supplement of paper PMC4604168 (melanoma cell lines).
# This is one part of the list. Most values come without repeats; read them as rough.
# Key:
# Experiment in all cases: cell count relative to DMSO control; melanoma cells; higher = more viable cells
# Details in all cases: library dose: standard library concentration; 72 h
# SkMel28 = system: SkMel28
# SkMel2 = system: SkMel2
# SkMel30 = system: SkMel30
# SkMel5 = system: SkMel5
# UACC257 = system: UACC257
# UACC62 = system: UACC62
# WM115 = system: WM115
# WM1716 = system: WM1716
# WM3526 = system: WM3526
# WM1745 = system: WM1745
# 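Further: cells treated in 1,536-well plates, then fixed and DAPI-stained, with nuclei counted from automated high-throughput microscope images.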
SMILES,cell count (SkMel28) [%],cell count (SkMel2) [%],cell count (SkMel30) [%],cell count (SkMel5) [%],cell count (UACC257) [%],cell count (UACC62) [%],cell count (WM115) [%],cell count (WM1716) [%],cell count (WM3526) [%],cell count (WM1745) [%]
"CC1(C)CCC(c2ccc(Cl)cc2)=C(CN2CCN(c3ccc(C(=O)NS(=O)(=O)c4ccc(N[C@H](CCN5CCOCC5)CSc5ccccc5)c(S(=O)(=O)C(F)(F)F)c4)cc3)CC2)C1 + COc1cc2ncnc(Nc3ccc(Oc4ccccc4)cc3)c2cc1OC [SrcI1] (first compound 2 µM, partner dose 10 µM)",52.8,79.5,67.5,69.8,23.5,47.3,43.2,57.9,53.4,
"CC1(C)CCC(c2ccc(Cl)cc2)=C(CN2CCN(c3ccc(C(=O)NS(=O)(=O)c4ccc(N[C@H](CCN5CCOCC5)CSc5ccccc5)c(S(=O)(=O)C(F)(F)F)c4)cc3)CC2)C1 + c1cc(-c2cnn3cc(-c4ccc(OCCN5CCCCC5)cc4)cnc23)ccn1 [Dorsomorphin] (first compound 2 µM, partner dose 2 µM)",88.5,83,72,46,20.1,69.9,55.5,56.1,84.4,
"O=C(/C=C/c1cccnc1)NCCCCC1CCN(C(=O)c2ccccc2)CC1 + N#Cc1c(O)c2c(-c3ccc(-c4ccccc4O)cc3)csc2[nH]c1=O [A769662] (first compound 0.05 µM, partner dose 10 µM)",65.4,36.9,95.6,108,107,89,90.6,67.4,85.6,
"CC1(C)CCC(c2ccc(Cl)cc2)=C(CN2CCN(c3ccc(C(=O)NS(=O)(=O)c4ccc(N[C@H](CCN5CCOCC5)CSc5ccccc5)c(S(=O)(=O)C(F)(F)F)c4)cc3)CC2)C1 + O=C(O)c1ccc2c(c1)nc(Nc1cccc(Cl)c1)c1ccncc12 [CX4945] (first compound 2 µM, partner dose 2 µM)",34.2,53.8,29.8,57.7,36.1,62.6,32.4,56.2,53.7,4.04
"Cc1ccc(Nc2nccc(N(C)c3ccc4c(C)n(C)nc4c3)n2)cc1S(N)(=O)=O [Pazopanib] + N#Cc1c(O)c2c(-c3ccc(-c4ccccc4O)cc3)csc2[nH]c1=O [A769662] (first compound 2 µM, partner dose 10 µM)",124,116,97.2,111,84.4,79.5,99.5,89.8,88.4,
"Cc1ccc(Nc2nccc(N(C)c3ccc4c(C)n(C)nc4c3)n2)cc1S(N)(=O)=O [Pazopanib] + O=S(=O)(c1ccccc1)N(CC(F)(F)F)c1ccc(C(O)(C(F)(F)F)C(F)(F)F)cc1 [T0901317] (first compound 2 µM, partner dose 7 µM)",87.2,103,87.7,64.1,77.8,81.5,88.4,63.8,78.1,
"Cc1ccc(Nc2nccc(N(C)c3ccc4c(C)n(C)nc4c3)n2)cc1S(N)(=O)=O [Pazopanib] + C=CCNC1=C2C[C@@H](C)C[C@H](OC)[C@H](O)[C@@H](C)/C=C(\C)[C@H](OC(N)=O)[C@@H](OC)/C=C\C=C(/C)C(=O)NC(=CC1=O)C2=O [Tanespimycin] (first compound 2 µM, partner dose 0.01 µM)",70.1,90.4,75.5,58.7,85,43.9,27.1,77.6,72.6,40
"Cc1ccc(Nc2nccc(N(C)c3ccc4c(C)n(C)nc4c3)n2)cc1S(N)(=O)=O [Pazopanib] + CCCCCCCCCCCC1=C(O)C(=O)C=C(O)C1=O [Embelin] (first compound 2 µM, partner dose 6 µM)",75.9,79.4,83.1,84.2,88.6,60.2,99.2,72.6,71.2,
"CC1(C)CCC(c2ccc(Cl)cc2)=C(CN2CCN(c3ccc(C(=O)NS(=O)(=O)c4ccc(N[C@H](CCN5CCOCC5)CSc5ccccc5)c(S(=O)(=O)C(F)(F)F)c4)cc3)CC2)C1 + CN1CCN(c2ccc3nc(-c4c(N)c5c(F)cccc5[nH]c4=O)[nH]c3c2)CC1 [Dovitinib] (first compound 2 µM, partner dose 0.5 µM)",24.1,42.6,38.5,45.4,42,36.7,22.2,44.6,60.5,13.5
"Cc1ccc(Nc2nccc(N(C)c3ccc4c(C)n(C)nc4c3)n2)cc1S(N)(=O)=O [Pazopanib] + NC(=O)Nc1cc(-c2cccc(F)c2)sc1C(=O)N[C@H]1CCCNC1 [AZD7762] (first compound 2 µM, partner dose 0.1 µM)",67.6,97.4,90.9,76.2,112,72.9,75.5,80,68.5,65.9
"O=C(/C=C/c1cccnc1)NCCCCC1CCN(C(=O)c2ccccc2)CC1 + COc1ccc(-c2ccc3c(N4CCOCC4)nc(N4C[C@@H](C)O[C@@H](C)C4)nc3n2)cc1CO [KU0063794] (first compound 0.05 µM, partner dose 0.1 µM)",76.2,27.2,84.7,61.1,92.3,82.4,87.1,72.1,102,
"CC1(C)CCC(c2ccc(Cl)cc2)=C(CN2CCN(c3ccc(C(=O)NS(=O)(=O)c4ccc(N[C@H](CCN5CCOCC5)CSc5ccccc5)c(S(=O)(=O)C(F)(F)F)c4)cc3)CC2)C1 + COc1ccc(-c2ccc3c(N4CCOCC4)nc(N4C[C@@H](C)O[C@@H](C)C4)nc3n2)cc1CO [KU0063794] (first compound 2 µM, partner dose 0.1 µM)",53.1,65.7,55.7,47.5,30.6,65.2,56.5,64.3,75.7,
"O=C(/C=C/c1cccnc1)NCCCCC1CCN(C(=O)c2ccccc2)CC1 + COc1cc(N2CCC(N3CCN(C)CC3)CC2)ccc1Nc1ncc(Cl)c(Nc2ccccc2S(=O)(=O)C(C)C)n1 [NVP-TAE684] (first compound 0.05 µM, partner dose 0.4 µM)",71.6,43.1,99,86.9,83.6,78.3,82.3,81.1,85.6,
"CC1(C)CCC(c2ccc(Cl)cc2)=C(CN2CCN(c3ccc(C(=O)NS(=O)(=O)c4ccc(N[C@H](CCN5CCOCC5)CSc5ccccc5)c(S(=O)(=O)C(F)(F)F)c4)cc3)CC2)C1 + O=C(O)C(=O)Nc1sc2c(c1C(=O)O)CCNC2 [TCS401] (first compound 2 µM, partner dose 8.33333 µM)",69.3,86.2,97.3,88.2,44.6,91.7,88.4,67.9,84.4,
"O=C(/C=C/c1cccnc1)NCCCCC1CCN(C(=O)c2ccccc2)CC1 + O=c1cc(-c2cccc3c2Sc2ccccc2S3)oc(N2CCOCC2)c1 [KU55933] (first compound 0.05 µM, partner dose 5 µM)",57.9,25.7,106,100,104,88.6,103,75.5,84.2,
"CC1(C)CCC(c2ccc(Cl)cc2)=C(CN2CCN(c3ccc(C(=O)NS(=O)(=O)c4ccc(N[C@H](CCN5CCOCC5)CSc5ccccc5)c(S(=O)(=O)C(F)(F)F)c4)cc3)CC2)C1 + C#Cc1cccc(Nc2ncnc3cc(OCCOC)c(OCCOC)cc23)c1 [erlotinib] (first compound 2 µM, partner dose 4 µM)",44.2,68,43.9,46.3,33.8,37.5,34.2,46.5,63.4,3.42
"O=C(/C=C/c1cccnc1)NCCCCC1CCN(C(=O)c2ccccc2)CC1 + Oc1cc(-c2nc(-c3ccccc3)[nH]c2-c2ccncc2)ccc1Cl [L779450] (first compound 0.05 µM, partner dose 1 µM)",60.2,25.4,89,65.5,94.3,54.5,66.2,67.2,56.4,
"O=C(/C=C/c1cccnc1)NCCCCC1CCN(C(=O)c2ccccc2)CC1 + COc1cc2ncnc(Nc3ccc(Oc4ccccc4)cc3)c2cc1OC [SrcI1] (first compound 0.05 µM, partner dose 10 µM)",47.5,29.3,79.5,51.5,79,58.5,69.1,71.8,50,
"O=C(/C=C/c1cccnc1)NCCCCC1CCN(C(=O)c2ccccc2)CC1 + COc1ccc(COc2ccc(Cc3cnc(N)nc3N)cc2OC)cc1 [GW2580] (first compound 0.05 µM, partner dose 5 µM)",66.2,19.5,84.2,74.2,84.1,77.3,82.5,77.2,95.2,
"Cc1ccc(Nc2nccc(N(C)c3ccc4c(C)n(C)nc4c3)n2)cc1S(N)(=O)=O [Pazopanib] + O=C1NC(=O)/C(=C/c2ccc(-c3ccc(F)cc3O)o2)S1 [AS252424] (first compound 2 µM, partner dose 5 µM)",96.1,92.8,99,74.3,95.1,83.5,94.8,64.9,82.7,
"CC1(C)CCC(c2ccc(Cl)cc2)=C(CN2CCN(c3ccc(C(=O)NS(=O)(=O)c4ccc(N[C@H](CCN5CCOCC5)CSc5ccccc5)c(S(=O)(=O)C(F)(F)F)c4)cc3)CC2)C1 + O=C(Nc1cccc(Cl)c1)Nc1ncc(CCNc2ncnc3ccsc23)s1 [SNS314] (first compound 2 µM, partner dose 0.004 µM)",37.9,,60,107,33,72.7,29.2,20,60.8,6.04
"O=C(/C=C/c1cccnc1)NCCCCC1CCN(C(=O)c2ccccc2)CC1 + O=S(=O)(c1ccccc1)N(CC(F)(F)F)c1ccc(C(O)(C(F)(F)F)C(F)(F)F)cc1 [T0901317] (first compound 0.05 µM, partner dose 7 µM)",62.8,20.7,100,79.3,79.5,83.8,81.5,99.1,84,
